# Some of the results follow.
# Target: T1, OsWOX13 (Oryza sativa, UniProt Q5QMM3 1-267)
# T1 sequence: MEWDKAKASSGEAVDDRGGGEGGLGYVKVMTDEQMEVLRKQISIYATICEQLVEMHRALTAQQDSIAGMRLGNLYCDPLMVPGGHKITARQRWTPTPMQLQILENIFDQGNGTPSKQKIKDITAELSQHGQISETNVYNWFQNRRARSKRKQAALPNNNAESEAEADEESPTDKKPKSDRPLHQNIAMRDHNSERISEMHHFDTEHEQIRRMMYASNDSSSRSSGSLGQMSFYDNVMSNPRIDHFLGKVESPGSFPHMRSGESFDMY
# Assay: protein-binding microarray (RPBM); PBS, 2% BSA, 51.3 ng/ul salmon testes DNA, 50 uM zinc acetate, 200 nM TF, 25 C, 1 h; high values mean tight binding
# Conditions: protein: recombinant; tags: N-terminal polyhistidine and DsRed monomer fusion (pET32a); label: CyDye5-dUTP incorporated in the synthesized complementary strand; 3' TTTTT single-stranded linker to array surface; dsDNA, one strand shown
# Summary of the method: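 The binding signal is fluorescence intensity per feature, in arbitrary units, read on an Axon 4000B scanner. Polyhistidine- and DsRed-tagged transcription factors (N-terminal fusions) from E. coli BL21-CodonPlus were purified on Ni–NTA and applied at 200 nM for 1 h at 25 °C to a double-stranded, BSA-blocked custom Agilent array in buffer with 50 µM zinc acetate.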
row,Sequence,binding signal
1,TAGTCAATTACTACTAGGTATGTGCTATTCATAACCATGACGGAGTCACCTAGTGCAG,7320 fluorescence intensity (a.u.)
2,CGGTGGACGCGTCGCTGATTGAGTTGCCTTGTACCTATAACGGAGTCACCTAGTGCAG,5590 fluorescence intensity (a.u.)
3,TCACAATAGATAATTTATTCACTGAAAATTTTAGTTTTGGCGGAGTCACCTAGTGCAG,11100 fluorescence intensity (a.u.)
4,GACGTAATTAGCGCAAACTGTTAGGCCCAAATGCGTCATTCGGAGTCACCTAGTGCAG,29500 fluorescence intensity (a.u.)
5,CAAATAAACAGGGTTCAGTCAAACTCAAGTGAATGAATTGCGGAGTCACCTAGTGCAG,11500 fluorescence intensity (a.u.)
6,TGTGATCTGATTGTTTGAAGTTTGCATTCTACTATGTCTGCGGAGTCACCTAGTGCAG,36800 fluorescence intensity (a.u.)
7,ACGAATTGACAACGAGGCAGCCCACAGACTTCGGCGCCCACGGAGTCACCTAGTGCAG,15200 fluorescence intensity (a.u.)
8,ACTTTAATAAATTAATAGATTTCAATAACACAGTTACGAACGGAGTCACCTAGTGCAG,18400 fluorescence intensity (a.u.)
9,AAAATTTAAATTTTCAACTTTAAATTTAGAGTTTATTTTGCGGAGTCACCTAGTGCAG,15700 fluorescence intensity (a.u.)
10,CCTATCAATTTGTTTTGCACCTTCTTGTGATGAAACTTAACGGAGTCACCTAGTGCAG,5820 fluorescence intensity (a.u.)
11,AAACATATTAGTTAAAATTTAACTTCTACAAATTGTAACACGGAGTCACCTAGTGCAG,6520 fluorescence intensity (a.u.)
12,CTTAATTAGCTCTAGCGAGCTAGCTAGCTTGCTCTGTCTTCGGAGTCACCTAGTGCAG,24200 fluorescence intensity (a.u.)
13,TATCAGAATTTAAATTGCATAACACACAAATGACCAAAATCGGAGTCACCTAGTGCAG,5330 fluorescence intensity (a.u.)
14,GATTAAACTAAGTTTGTTAATGGAGAAATAGTTTAAATCGCGGAGTCACCTAGTGCAG,5640 fluorescence intensity (a.u.)
15,GCGTAATTAGGCGGAGAGATTATAGGGAGAGAGATCGCGACGGAGTCACCTAGTGCAG,16700 fluorescence intensity (a.u.)
16,TTTGATCGTACTAAAATTAGTATTTTCCTTTCTCAGGCATCGGAGTCACCTAGTGCAG,5160 fluorescence intensity (a.u.)
17,TAATTATAATTTTGTTTAGCATATATTAAGTTTTGGAAGACGGAGTCACCTAGTGCAG,5790 fluorescence intensity (a.u.)
18,TCTATAAATTGGCTACTACGTCCTCATTGCAAGACTCCCCCGGAGTCACCTAGTGCAG,24500 fluorescence intensity (a.u.)
19,CATTGAATGTTTGGACACTAATTATAAATATTAAACGTAGCGGAGTCACCTAGTGCAG,9090 fluorescence intensity (a.u.)
20,TATCCGACCTGCCTCATCTGCCAATCATTGCATTCCATATCGGAGTCACCTAGTGCAG,3450 fluorescence intensity (a.u.)
21,AGATACTAAAATCAATCAAACATTTTGATATATGACCATCCGGAGTCACCTAGTGCAG,17500 fluorescence intensity (a.u.)
22,ATGGTGATAGACGAGTTTAGATATAACCGGAACAATTCGCCGGAGTCACCTAGTGCAG,26500 fluorescence intensity (a.u.)
23,AAATGCGAGAAGAATTAATTACCAATCCCAATTATGTCGACGGAGTCACCTAGTGCAG,6710 fluorescence intensity (a.u.)

# Reference: publication PMC7819943, “Rice protein-binding microarrays: a tool to detect cis-acting elements near promoter regions in rice”
